The list shows a part of the results.
Assays:
Assay in all cases: glycan array binding signal (z-score within array); higher = stronger binding
Settings in all cases: glycan notation: IUPAC condensed, linker removed
GlcNAc(b1-3)Gal(b1-4)Glc = target: GlcNAc(b1-3)Gal(b1-4)Glc
How it was run: (§1)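 Glycan array binding is given as a within-array Z-score, which can be read as non-binding when negative. The arrays, 3228 of them, came from the Consortium for Functional Glycomics database and were retained only where the protein sequence was available. Z-scores were averaged across arrays of the same protein sequence at different concentrations or buffers and across linkers.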

[1] = target: GlcNAc(b1-3)Gal(b1-4)GlcNAc
How it was run: as §1

[2] = target: GlcNAc(b1-3)Gal(b1-4)GlcNAc(b1-2)Man(a1-3)[GlcNAc(b1-3)Gal(b1-4)GlcNAc(b1-2)Man(a1-6)]Man(b1-4)GlcNAc(b1-4)GlcNAc
How it was run: as §1

[3] = target: GlcNAc(b1-3)Gal(b1-4)GlcNAc(b1-2)Man(a1-3)[GlcNAc(b1-3)Gal(b1-4)GlcNAc(b1-2)Man(a1-6)]Man(b1-4)GlcNAc(b1-4)[Fuc(a1-6)]GlcNAc
How it was run: as §1

[4] = target: GlcNAc(b1-3)Gal(b1-4)GlcNAc(b1-2)[GlcNAc(b1-3)Gal(b1-4)GlcNAc(b1-6)]Man(a1-6)[GlcNAc(b1-3)Gal(b1-4)GlcNAc(b1-2)Man(a1-3)]Man(b1-4)GlcNAc(b1-4)GlcNAc
How it was run: as §1

[5] = target: GlcNAc(b1-3)Gal(b1-4)GlcNAc(b1-3)Gal(b1-4)GlcNAc
How it was run: as §1

[6] = target: GlcNAc(b1-3)Gal(b1-4)GlcNAc(b1-3)Gal(b1-4)GlcNAc(b1-2)Man(a1-3)[GlcNAc(b1-3)Gal(b1-4)GlcNAc(b1-3)Gal(b1-4)GlcNAc(b1-2)Man(a1-6)]Man(b1-4)GlcNAc(b1-4)GlcNAc
How it was run: as §1

[7] = target: GlcNAc(b1-3)Gal(b1-4)GlcNAc(b1-3)Gal(b1-4)GlcNAc(b1-2)Man(a1-3)[GlcNAc(b1-3)Gal(b1-4)GlcNAc(b1-3)Gal(b1-4)GlcNAc(b1-2)Man(a1-6)]Man(b1-4)GlcNAc(b1-4)[Fuc(a1-6)]GlcNAc
How it was run: as §1

[8] = target: GlcNAc(b1-3)Gal(b1-4)GlcNAc(b1-3)Gal(b1-4)GlcNAc(b1-2)[GlcNAc(b1-3)Gal(b1-4)GlcNAc(b1-3)Gal(b1-4)GlcNAc(b1-6)]Man(a1-6)[GlcNAc(b1-3)Gal(b1-4)GlcNAc(b1-3)Gal(b1-4)GlcNAc(b1-2)Man(a1-3)]Man(b1-4)GlcNAc(b1-4)[Fuc(a1-6)]GlcNAc
How it was run: as §1

[9] = target: GlcNAc(b1-3)Gal(b1-4)GlcNAc(b1-3)Gal(b1-4)GlcNAc(b1-3)Gal(b1-4)GlcNAc(b1-2)Man(a1-3)[GlcNAc(b1-3)Gal(b1-4)GlcNAc(b1-3)Gal(b1-4)GlcNAc(b1-3)Gal(b1-4)GlcNAc(b1-2)Man(a1-6)]Man(b1-4)GlcNAc(b1-4)GlcNAc
How it was run: as §1

[10] = target: GlcNAc(b1-3)Gal(b1-4)GlcNAc(b1-3)Gal(b1-4)GlcNAc(b1-3)Gal(b1-4)GlcNAc(b1-2)Man(a1-3)[GlcNAc(b1-3)Gal(b1-4)GlcNAc(b1-3)Gal(b1-4)GlcNAc(b1-3)Gal(b1-4)GlcNAc(b1-2)Man(a1-6)]Man(b1-4)GlcNAc(b1-4)[Fuc(a1-6)]GlcNAc
How it was run: as §1

[11] = target: GlcNAc(b1-3)Gal(b1-4)GlcNAc(b1-3)Gal(b1-4)GlcNAc(b1-3)Gal(b1-4)GlcNAc(b1-2)[GlcNAc(b1-3)Gal(b1-4)GlcNAc(b1-3)Gal(b1-4)GlcNAc(b1-3)Gal(b1-4)GlcNAc(b1-6)]Man(a1-6)[GlcNAc(b1-3)Gal(b1-4)GlcNAc(b1-3)Gal(b1-4)GlcNAc(b1-3)Gal(b1-4)GlcNAc(b1-2)Man(a1-3)]Man(b1-4)GlcNAc(b1-4)[Fuc(a1-6)]GlcNAc
How it was run: as §1

[12] = target: GlcNAc(b1-3)Gal(b1-4)GlcNAc(b1-3)Gal(b1-4)GlcNAc(b1-3)Gal(b1-4)GlcNAc(b1-3)Gal(b1-4)GlcNAc(b1-2)Man(a1-3)[GlcNAc(b1-3)Gal(b1-4)GlcNAc(b1-3)Gal(b1-4)GlcNAc(b1-3)Gal(b1-4)GlcNAc(b1-3)Gal(b1-4)GlcNAc(b1-2)Man(a1-6)]Man(b1-4)GlcNAc(b1-4)GlcNAc
How it was run: as §1

[13] = target: GlcNAc(b1-3)Gal(b1-4)GlcNAc(b1-3)Gal(b1-4)GlcNAc(b1-3)Gal(b1-4)GlcNAc(b1-3)Gal(b1-4)GlcNAc(b1-2)Man(a1-3)[GlcNAc(b1-3)Gal(b1-4)GlcNAc(b1-3)Gal(b1-4)GlcNAc(b1-3)Gal(b1-4)GlcNAc(b1-3)Gal(b1-4)GlcNAc(b1-2)Man(a1-6)]Man(b1-4)GlcNAc(b1-4)[Fuc(a1-6)]GlcNAc
How it was run: as §1

[14] = target: GlcNAc(b1-3)Gal(b1-4)GlcNAc(b1-3)Gal(b1-4)GlcNAc(b1-3)Gal(b1-4)GlcNAc(b1-3)Gal(b1-4)GlcNAc(b1-2)[GlcNAc(b1-3)Gal(b1-4)GlcNAc(b1-3)Gal(b1-4)GlcNAc(b1-3)Gal(b1-4)GlcNAc(b1-3)Gal(b1-4)GlcNAc(b1-6)]Man(a1-6)[GlcNAc(b1-3)Gal(b1-4)GlcNAc(b1-3)Gal(b1-4)GlcNAc(b1-3)Gal(b1-4)GlcNAc(b1-3)Gal(b1-4)GlcNAc(b1-2)Man(a1-3)]Man(b1-4)GlcNAc(b1-4)[Fuc(a1-6)]GlcNAc
How it was run: as §1

[15] = target: GlcNAc(b1-3)Gal(b1-4)GlcNAc(b1-3)Gal(b1-4)GlcNAc(b1-3)GalNAc
How it was run: as §1

[16] = target: GlcNAc(b1-3)Gal(b1-4)GlcNAc(b1-3)GalNAc
How it was run: as §1

[17] = target: GlcNAc(b1-3)Gal(b1-4)GlcNAc(b1-3)[GlcNAc(b1-3)Gal(b1-4)GlcNAc(b1-3)]GalNAc
How it was run: as §1

[18] = target: GlcNAc(b1-3)Gal(b1-4)GlcNAc(b1-6)[Gal(b1-3)]GalNAc
How it was run: as §1

[19] = target: GlcNAc(b1-3)Gal(b1-4)GlcNAc(b1-6)[GlcNAc(b1-3)Gal(b1-3)]GalNAc
How it was run: as §1

[20] = target: GlcNAc(b1-3)Gal(b1-4)GlcNAc(b1-6)[GlcNAc(b1-3)]Gal(b1-4)GlcNAc
How it was run: as §1

GlcNAc(b1-3)GalNAc = target: GlcNAc(b1-3)GalNAc
How it was run: as §1

GlcNAc(b1-3)Man = target: GlcNAc(b1-3)Man
How it was run: as §1

[21] = target: GlcNAc(b1-3)[GlcNAc(b1-4)][GlcNAc(b1-6)]GlcNAc
How it was run: as §1

[22] = target: GlcNAc(b1-3)[GlcNAc(b1-6)]Gal(b1-4)GlcNAc
How it was run: as §1

[23] = target: GlcNAc(b1-3)[GlcNAc(b1-6)]GalNAc
How it was run: as §1

[24] = target: GlcNAc(b1-4)Gal(b1-4)GlcNAc
How it was run: as §1

GlcNAc(b1-4)GlcNAc = target: GlcNAc(b1-4)GlcNAc
How it was run: as §1

[25] = target: GlcNAc(b1-4)GlcNAc(b1-4)GlcNAc
How it was run: as §1

[26] = target: GlcNAc(b1-4)GlcNAc(b1-4)GlcNAc(b1-4)GlcNAc(b1-4)GlcNAc
How it was run: as §1

[27] = target: GlcNAc(b1-4)GlcNAc(b1-4)GlcNAc(b1-4)GlcNAc(b1-4)GlcNAc(b1-4)GlcNAc
How it was run: as §1

[28] = target: GlcNAc(b1-4)[GlcNAc(b1-6)]GalNAc
How it was run: as §1

[29] = target: GlcNAc(b1-6)Gal(b1-4)GlcNAc
How it was run: as §1

GlcNAc(b1-6)GalNAc = target: GlcNAc(b1-6)GalNAc
How it was run: as §1

[30] = target: GlcNAc6S(b1-3)Gal(b1-4)GlcNAc
How it was run: as §1

Kdn(a2-3)Gal(b1-3)GalNAc = target: Kdn(a2-3)Gal(b1-3)GalNAc
How it was run: as §1

Kdn(a2-3)Gal(b1-3)GlcNAc = target: Kdn(a2-3)Gal(b1-3)GlcNAc
How it was run: as §1

Kdn(a2-3)Gal(b1-4)Glc = target: Kdn(a2-3)Gal(b1-4)Glc
How it was run: as §1

Kdn(a2-3)Gal(b1-4)GlcNAc = target: Kdn(a2-3)Gal(b1-4)GlcNAc
How it was run: as §1

[31] = target: Kdn(a2-3)Gal(b1-4)[Fuc(a1-3)]GlcNAc
How it was run: as §1

Kdn(a2-6)Gal(b1-4)GlcNAc = target: Kdn(a2-6)Gal(b1-4)GlcNAc
How it was run: as §1

[32] = target: Man(a1-2)Man(a1-2)Man(a1-3)Man
How it was run: as §1

[33] = target: Man(a1-2)Man(a1-2)Man(a1-6)[Man(a1-3)]Man
How it was run: as §1

Man(a1-2)Man(a1-3)Man = target: Man(a1-2)Man(a1-3)Man
How it was run: as §1

[34] = target: Man(a1-2)Man(a1-3)[Man(a1-2)Man(a1-6)]Man
How it was run: as §1

B1: Arath Fbox LD (Arabidopsis thaliana) (protein)
chain: EFSVWLEKASGKRCLMLSAMNLSIIWGDNPQYWQWIPIPESRFEKVAKLRDVCWFEIRGRTNTRVLSPRTRYSAYIVFKGVDKCYGFQNVAIEAAVGVVGQEPSRRLICFSEAIRRGRRNVVKPKQREDGWMEIELGEFFNDGGIMDNDEIEMSALETKQLNRKCGLIIQGIEIRPAKILAAASFLEQKLISEEDLNSAVDHHHHHH
glycan array binding signal (z-score) (GlcNAc(b1-3)Gal(b1-4)Glc): 0.513
glycan array binding signal (z-score) [1]: -0.342
glycan array binding signal (z-score) [2]: -0.512
glycan array binding signal (z-score) [3]: -0.468
glycan array binding signal (z-score) [4]: 0.893
glycan array binding signal (z-score) [5]: -0.515
glycan array binding signal (z-score) [6]: -0.123
glycan array binding signal (z-score) [7]: -0.373
glycan array binding signal (z-score) [8]: 0.126
glycan array binding signal (z-score) [9]: 1.11
glycan array binding signal (z-score) [10]: -0.485
glycan array binding signal (z-score) [11]: 0.244
glycan array binding signal (z-score) [12]: -0.541
glycan array binding signal (z-score) [13]: -0.57
glycan array binding signal (z-score) [14]: -0.033
glycan array binding signal (z-score) [15]: -0.049
glycan array binding signal (z-score) [16]: -0.513
glycan array binding signal (z-score) [17]: -0.565
glycan array binding signal (z-score) [18]: -0.61
glycan array binding signal (z-score) [19]: -0.52
glycan array binding signal (z-score) [20]: -0.444
glycan array binding signal (z-score) (GlcNAc(b1-3)GalNAc): -0.017
glycan array binding signal (z-score) (GlcNAc(b1-3)Man): -0.311
glycan array binding signal (z-score) [21]: -0.289
glycan array binding signal (z-score) [22]: 0.839
glycan array binding signal (z-score) [23]: 0.261
glycan array binding signal (z-score) [24]: -0.245
glycan array binding signal (z-score) (GlcNAc(b1-4)GlcNAc): -0.462
glycan array binding signal (z-score) [25]: -0.45
glycan array binding signal (z-score) [26]: -0.043
glycan array binding signal (z-score) [27]: -0.495
glycan array binding signal (z-score) [28]: 1.01
glycan array binding signal (z-score) [29]: -0.581
glycan array binding signal (z-score) (GlcNAc(b1-6)GalNAc): -0.539
glycan array binding signal (z-score) [30]: -0.397
glycan array binding signal (z-score) (Kdn(a2-3)Gal(b1-3)GalNAc): -0.502
glycan array binding signal (z-score) (Kdn(a2-3)Gal(b1-3)GlcNAc): -0.08
glycan array binding signal (z-score) (Kdn(a2-3)Gal(b1-4)Glc): -0.606
glycan array binding signal (z-score) (Kdn(a2-3)Gal(b1-4)GlcNAc): 0.734
glycan array binding signal (z-score) [31]: -0.387
glycan array binding signal (z-score) (Kdn(a2-6)Gal(b1-4)GlcNAc): -0.622
glycan array binding signal (z-score) [32]: -0.56
glycan array binding signal (z-score) [33]: -0.487
glycan array binding signal (z-score) (Man(a1-2)Man(a1-3)Man): -0.425
glycan array binding signal (z-score) [34]: -0.473

Reference: the supplement of paper PMC8728848
